Experimental data from patent publication US20240076343A1.
One block for each binder: values may come before it.

What was measured:
Assay in all cases: cell-based or functional assay
[1] = molecular target: high-affinity hIL-2 receptor (IL-2Rαβγ) (human) (UniProt P01589)
[2] = molecular target: intermediate affinity hIL-2 receptor complex (IL-2Rβγ) (human) (UniProt P14784)
[3] = molecular target: high-affinity hIL-2 receptor (IL-2Rαβγ) on NK-92 cells (human) (UniProt P01589)
[4] = molecular target: intermediate affinity hIL-2 receptor (hIL-2Rβγ) on TF1+IL-2Rβ cells (human) (UniProt P14784)

Fold change from hIL-2 (NK-92), pSTAT5 fixed conc. [1]: 24 fold
Fold change from hIL-2 (TF1 + IL-2Rβ), pSTAT5 fixed conc. [2]: 5 fold
Fold change from rhIL-2 (NK-92) [3]: > 10000 fold
Fold change from rhIL-2 (TF1 + IL-2Rβ) [4]: > 10000 fold
B2: 1H3-hIgG1-L6-hIL-2 (R38E/I92P) (protein)
heavy: EVQLVESGGGLVQPGRSLKLSCAVSGFTFSDYAMAWVRQAPKKGLEWVATISYDGSRTYYRDSVKGRFTISRDNAKITLYLQMDSLRSEDTATYYCARHGSGYFDYWGQGVMVTVSS[not shown - about 450 residues with a human IgG1 Fc and changes]
light: DTVLTQSPALAVSPGERVTISCRASESVRTGVHWYQQKPGQQPKLLIYGASNLESGVPARFSGSGSGTDFTLTIDPVEADDTATYFCQQSWNDPFTFGSGTKLEIKRTVAAPSVFIFPPSDEQLKSGTASVVCLLNNFYPREAKVQWKVDNALQSGNSQESVTEQDSKDSTYSLSSTLTLSKADYEKHKVYACEVTHQGLSSPVTKSFNRGEC

Fold change from hIL-2 (NK-92), pSTAT5 fixed conc. [1]: 17 fold
Fold change from hIL-2 (TF1 + IL-2Rβ), pSTAT5 fixed conc. [2]: 5 fold
Fold change from rhIL-2 (NK-92) [3]: 13 fold
Agonistic Activity (TF1 + IL-2Rβ) [4]: 40%
Fold change from rhIL-2 (TF1 + IL-2Rβ) [4]: 2940 fold
B9: 1H3-hIgG1-L6-hIL-2 (R38E/D20H) (protein)
heavy: EVQLVESGGGLVQPGRSLKLSCAVSGFTFSDYAMAWVRQAPKKGLEWVATISYDGSRTYYRDSVKGRFTISRDNAKITLYLQMDSLRSEDTATYYCARHGSGYFDYWGQGVMVTVSS[not shown - about 450 residues with a human IgG1 Fc and changes]
light: B2 light

Fold change from hIL-2 (NK-92), pSTAT5 fixed conc. [1]: 24 fold
Fold change from hIL-2 (TF1 + IL-2Rβ), pSTAT5 fixed conc. [2]: 3 fold
Agonistic Activity (NK-92) [3]: 70%
Fold change from rhIL-2 (NK-92) [3]: > 10000 fold
Fold change from rhIL-2 (TF1 + IL-2Rβ) [4]: 239 fold
B13: 1H3-hIgG1-L6-hIL-2 (R38E/I92K) (protein)
heavy: EVQLVESGGGLVQPGRSLKLSCAVSGFTFSDYAMAWVRQAPKKGLEWVATISYDGSRTYYRDSVKGRFTISRDNAKITLYLQMDSLRSEDTATYYCARHGSGYFDYWGQGVMVTVSS[not shown - about 450 residues with a human IgG1 Fc and changes]
light: B2 light

Fold change from hIL-2 (NK-92), pSTAT5 fixed conc. [1]: 17 fold
Fold change from hIL-2 (TF1 + IL-2Rβ), pSTAT5 fixed conc. [2]: 3 fold
Fold change from rhIL-2 (NK-92) [3]: 66 fold
Agonistic Activity (TF1 + IL-2Rβ) [4]: 70%
Fold change from rhIL-2 (TF1 + IL-2Rβ) [4]: 369 fold
B16: 1H3-hIgG1-L6-hIL-2 (R38K/D20A) (protein)
heavy: EVQLVESGGGLVQPGRSLKLSCAVSGFTFSDYAMAWVRQAPKKGLEWVATISYDGSRTYYRDSVKGRFTISRDNAKITLYLQMDSLRSEDTATYYCARHGSGYFDYWGQGVMVTVSS[not shown - about 450 residues with a human IgG1 Fc and changes]
light: B2 light

Fold change from hIL-2 (NK-92), pSTAT5 fixed conc. [1]: 17 fold
Fold change from rhIL-2 (NK-92), pSTAT5 titration [1]: > 10000 fold
Fold change from hIL-2 (TF1 + IL-2Rβ), pSTAT5 fixed conc. [2]: 3 fold
Fold change from rhIL-2 (TF1 + IL-2Rβ), pSTAT5 titration [2]: 25 fold
Agonistic Activity (NK-92) [3]: 50%
Fold change from rhIL-2 (NK-92) [3]: > 10000 fold
Fold change from rhIL-2 (TF1 + IL-2Rβ) [4]: 626 fold
B17: 1H3-hIgG1-L6-hIL-2 (R38E/D20S) (protein)
heavy: EVQLVESGGGLVQPGRSLKLSCAVSGFTFSDYAMAWVRQAPKKGLEWVATISYDGSRTYYRDSVKGRFTISRDNAKITLYLQMDSLRSEDTATYYCARHGSGYFDYWGQGVMVTVSS[not shown - about 450 residues with a human IgG1 Fc and changes]
light: B2 light

Fold change from hIL-2 (NK-92), pSTAT5 fixed conc. [1]: 25 fold
Fold change from hIL-2 (TF1 + IL-2Rβ), pSTAT5 fixed conc. [2]: 3 fold
Fold change from rhIL-2 (NK-92) [3]: 658 fold
Fold change from rhIL-2 (TF1 + IL-2Rβ) [4]: 58 fold
B18: 1H3-hIgG1-L6-hIL-2 (R38E/H16E) (protein)
heavy: EVQLVESGGGLVQPGRSLKLSCAVSGFTFSDYAMAWVRQAPKKGLEWVATISYDGSRTYYRDSVKGRFTISRDNAKITLYLQMDSLRSEDTATYYCARHGSGYFDYWGQGVMVTVSS[not shown - about 450 residues with a human IgG1 Fc and changes]
light: B2 light

Second part, the binder before the results:

B1: 1H3-hIgG1-L6-hIL-2 (I92D/F42T) (protein)
heavy: EVQLVESGGGLVQPGRSLKLSCAVSGFTFSDYAMAWVRQAPKKGLEWVATISYDGSRTYYRDSVKGRFTISRDNAKITLYLQMDSLRSEDTATYYCARHGSGYFDYWGQGVMVTVSS[not shown - about 450 residues with a human IgG1 Fc and changes]
light: B2 light
Fold change from hIL-2 (NK-92), pSTAT5 fixed conc. [1]: 28 fold
Fold change from rhIL-2 (NK-92), pSTAT5 titration [1]: > 10000 fold
Fold change from hIL-2 (TF1 + IL-2Rβ), pSTAT5 fixed conc. [2]: 3 fold
Fold change from rhIL-2 (TF1 + IL-2Rβ), pSTAT5 titration [2]: > 10000 fold
Agonistic Activity (NK-92) [3]: 40%
Fold change from rhIL-2 (NK-92) [3]: > 10000 fold
Fold change from rhIL-2 (TF1 + IL-2Rβ) [4]: 1070 fold

B3: 1H3-hIgG1-L6-hIL-2 (I92D/F42V) (protein)
heavy: EVQLVESGGGLVQPGRSLKLSCAVSGFTFSDYAMAWVRQAPKKGLEWVATISYDGSRTYYRDSVKGRFTISRDNAKITLYLQMDSLRSEDTATYYCARHGSGYFDYWGQGVMVTVSS[not shown - about 450 residues with a human IgG1 Fc and changes]
light: B2 light
Fold change from hIL-2 (NK-92), pSTAT5 fixed conc. [1]: 30 fold
Fold change from hIL-2 (TF1 + IL-2Rβ), pSTAT5 fixed conc. [2]: 3 fold
Agonistic Activity (NK-92) [3]: 60%
Fold change from rhIL-2 (NK-92) [3]: 1080 fold
Fold change from rhIL-2 (TF1 + IL-2Rβ) [4]: 343 fold

B4: 1H3-hIgG1-L6-hIL-2 (I92D/Y45F) (protein)
heavy: EVQLVESGGGLVQPGRSLKLSCAVSGFTFSDYAMAWVRQAPKKGLEWVATISYDGSRTYYRDSVKGRFTISRDNAKITLYLQMDSLRSEDTATYYCARHGSGYFDYWGQGVMVTVSS[not shown - about 450 residues with a human IgG1 Fc and changes]
light: B2 light
Fold change from hIL-2 (NK-92), pSTAT5 fixed conc. [1]: 10 fold
Fold change from hIL-2 (TF1 + IL-2Rβ), pSTAT5 fixed conc. [2]: 3 fold
Fold change from rhIL-2 (NK-92) [3]: 33 fold
Fold change from rhIL-2 (TF1 + IL-2Rβ) [4]: 1650 fold

B5: 1H3-hIgG1-L6-hIL-2 (F42A/N88D) (protein)
heavy: EVQLVESGGGLVQPGRSLKLSCAVSGFTFSDYAMAWVRQAPKKGLEWVATISYDGSRTYYRDSVKGRFTISRDNAKITLYLQMDSLRSEDTATYYCARHGSGYFDYWGQGVMVTVSS[not shown - about 450 residues with a human IgG1 Fc and changes]
light: B2 light
Fold change from hIL-2 (NK-92), pSTAT5 fixed conc. [1]: 18 fold
Fold change from hIL-2 (TF1 + IL-2Rβ), pSTAT5 fixed conc. [2]: 3 fold
Fold change from rhIL-2 (NK-92) [3]: 1970 fold
Fold change from rhIL-2 (TF1 + IL-2Rβ) [4]: 86 fold

B6: 1H3-hIgG1-L6-hIL-2 (I92D/Y45Q) (protein)
heavy: EVQLVESGGGLVQPGRSLKLSCAVSGFTFSDYAMAWVRQAPKKGLEWVATISYDGSRTYYRDSVKGRFTISRDNAKITLYLQMDSLRSEDTATYYCARHGSGYFDYWGQGVMVTVSS[not shown - about 450 residues with a human IgG1 Fc and changes]
light: B2 light
Fold change from hIL-2 (NK-92), pSTAT5 fixed conc. [1]: 25 fold
Fold change from hIL-2 (TF1 + IL-2Rβ), pSTAT5 fixed conc. [2]: 3 fold
Fold change from rhIL-2 (NK-92) [3]: 53 fold
Fold change from rhIL-2 (TF1 + IL-2Rβ) [4]: 80 fold

B7: 1H3-hIgG1-L6-hIL-2 (I92D/Y45S) (protein)
heavy: EVQLVESGGGLVQPGRSLKLSCAVSGFTFSDYAMAWVRQAPKKGLEWVATISYDGSRTYYRDSVKGRFTISRDNAKITLYLQMDSLRSEDTATYYCARHGSGYFDYWGQGVMVTVSS[not shown - about 450 residues with a human IgG1 Fc and changes]
light: B2 light
Fold change from hIL-2 (NK-92), pSTAT5 fixed conc. [1]: 11 fold
Fold change from hIL-2 (TF1 + IL-2Rβ), pSTAT5 fixed conc. [2]: 3 fold
Fold change from rhIL-2 (NK-92) [3]: 20 fold
Fold change from rhIL-2 (TF1 + IL-2Rβ) [4]: 306 fold

B8: 1H3-hIgG1-L6-hIL-2 (I92D/F42W) (protein)
heavy: EVQLVESGGGLVQPGRSLKLSCAVSGFTFSDYAMAWVRQAPKKGLEWVATISYDGSRTYYRDSVKGRFTISRDNAKITLYLQMDSLRSEDTATYYCARHGSGYFDYWGQGVMVTVSS[not shown - about 450 residues with a human IgG1 Fc and changes]
light: B2 light
Fold change from hIL-2 (NK-92), pSTAT5 fixed conc. [1]: 18 fold
Fold change from hIL-2 (TF1 + IL-2Rβ), pSTAT5 fixed conc. [2]: 4 fold
Fold change from rhIL-2 (NK-92) [3]: 405 fold
Fold change from rhIL-2 (TF1 + IL-2Rβ) [4]: 3950 fold

B10: 1H3-hIgG1-L6-hIL-2 (I92D/Y45G) (protein)
heavy: EVQLVESGGGLVQPGRSLKLSCAVSGFTFSDYAMAWVRQAPKKGLEWVATISYDGSRTYYRDSVKGRFTISRDNAKITLYLQMDSLRSEDTATYYCARHGSGYFDYWGQGVMVTVSS[not shown - about 450 residues with a human IgG1 Fc and changes]
light: B2 light
Fold change from hIL-2 (NK-92), pSTAT5 fixed conc. [1]: 20 fold
Fold change from hIL-2 (TF1 + IL-2Rβ), pSTAT5 fixed conc. [2]: 3 fold
Fold change from rhIL-2 (NK-92) [3]: 41 fold
Fold change from rhIL-2 (TF1 + IL-2Rβ) [4]: 91 fold

B11: 1H3-hIgG1-L6-hIL-2 (I92D/Y45A) (protein)
heavy: EVQLVESGGGLVQPGRSLKLSCAVSGFTFSDYAMAWVRQAPKKGLEWVATISYDGSRTYYRDSVKGRFTISRDNAKITLYLQMDSLRSEDTATYYCARHGSGYFDYWGQGVMVTVSS[not shown - about 450 residues with a human IgG1 Fc and changes]
light: B2 light
Fold change from hIL-2 (NK-92), pSTAT5 fixed conc. [1]: 11 fold
Fold change from hIL-2 (TF1 + IL-2Rβ), pSTAT5 fixed conc. [2]: 3 fold
Fold change from rhIL-2 (NK-92) [3]: 15 fold
Fold change from rhIL-2 (TF1 + IL-2Rβ) [4]: 285 fold

B12: 1H3-hIgG1-L6-hIL-2 (I92D/F42Y) (protein)
heavy: EVQLVESGGGLVQPGRSLKLSCAVSGFTFSDYAMAWVRQAPKKGLEWVATISYDGSRTYYRDSVKGRFTISRDNAKITLYLQMDSLRSEDTATYYCARHGSGYFDYWGQGVMVTVSS[not shown - about 450 residues with a human IgG1 Fc and changes]
light: B2 light
Fold change from hIL-2 (NK-92), pSTAT5 fixed conc. [1]: 22 fold
Fold change from hIL-2 (TF1 + IL-2Rβ), pSTAT5 fixed conc. [2]: 3 fold
Fold change from rhIL-2 (NK-92) [3]: 58 fold
Fold change from rhIL-2 (TF1 + IL-2Rβ) [4]: 106 fold

B14: 1H3-hIgG1-L6-hIL-2 (F42A/N88R) (protein)
heavy: EVQLVESGGGLVQPGRSLKLSCAVSGFTFSDYAMAWVRQAPKKGLEWVATISYDGSRTYYRDSVKGRFTISRDNAKITLYLQMDSLRSEDTATYYCARHGSGYFDYWGQGVMVTVSS[not shown - about 450 residues with a human IgG1 Fc and changes]
light: B2 light
Fold change from hIL-2 (NK-92), pSTAT5 fixed conc. [1]: 18 fold
Fold change from rhIL-2 (NK-92), pSTAT5 titration [1]: > 10000 fold
Fold change from hIL-2 (TF1 + IL-2Rβ), pSTAT5 fixed conc. [2]: 3 fold
Fold change from rhIL-2 (TF1 + IL-2Rβ), pSTAT5 titration [2]: 34 fold
Agonistic Activity (NK-92) [3]: 70%
Fold change from rhIL-2 (NK-92) [3]: 8350 fold
Fold change from rhIL-2 (TF1 + IL-2Rβ) [4]: 1460 fold

B15: 1H3-hIgG1-L6-hIL-2 (I92D/Y45M) (protein)
heavy: EVQLVESGGGLVQPGRSLKLSCAVSGFTFSDYAMAWVRQAPKKGLEWVATISYDGSRTYYRDSVKGRFTISRDNAKITLYLQMDSLRSEDTATYYCARHGSGYFDYWGQGVMVTVSS[not shown - about 450 residues with a human IgG1 Fc and changes]
light: B2 light
Fold change from hIL-2 (NK-92), pSTAT5 fixed conc. [1]: 14 fold
Fold change from hIL-2 (TF1 + IL-2Rβ), pSTAT5 fixed conc. [2]: 3 fold
Fold change from rhIL-2 (NK-92) [3]: 7 fold
Fold change from rhIL-2 (TF1 + IL-2Rβ) [4]: 146 fold
